Assay results from the supplement of paper PMC4967469.
A lower IC50 marks a more sensitive line; where the fit passes the top or lowest dose, that dose stands as a limit. AUC is the area under the same curve over the 256-fold range up to the top dose, as a fraction; the more sensitive the line, the further below 1. For some assays here: Any top dose called inferred was derived from the fitted curves, not read from the paper. For some assays here: Drugs with an entry number were screened twice under separate entries, and the two screens often disagree.

Legend:
Assay in all cases: Viability of human cancer cell lines after 72 h of drug (GDSC screen)
XMD13-2 = compound: O=C(NC1CC1)c1cccc(-c2ccc3c(NC(=O)C4CC4)n[nH]c3c2)c1 [XMD13-2]; settings: top dose 10.24 µM; top dose inferred
Description: (§1)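 Human cancer cell lines in 384-well plates, medium with 10% serum, drug for 72 h over a 256-fold dose range (nine 2-fold or five 4-fold steps up to the top dose). Adherent lines were fixed and stained with the nucleic acid dye Syto60, suspension lines read with resazurin; signal relative to control wells, capped at 0 and 100%. One two-parameter sigmoid per drug and line, fitted in a mixed model over all curves with the slope shared within a line.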

PF-562271 = compound: CN(c1ncccc1CNc1nc(Nc2ccc3c(c2)CC(=O)N3)ncc1C(F)(F)F)S(C)(=O)=O [PF-562271]; settings: top dose 2.56 µM; top dose inferred
Description: as §1

SNX-2112 = compound: CC1(C)CC(=O)c2c(C(F)(F)F)nn(-c3ccc(C(N)=O)c(N[C@H]4CC[C@H](O)CC4)c3)c2C1 [SNX-2112]; settings: top dose 2.56 µM
Description: as §1

Vinblastine = compound: CC[C@]1(O)C[C@@H]2CN(CCc3c([nH]c4ccccc34)[C@@](C(=O)OC)(c3cc4c(cc3OC)N(C)[C@H]3[C@@](O)(C(=O)OC)[C@H](OC(C)=O)[C@]5(CC)C=CCN6CC[C@]43[C@@H]65)C2)C1 [Vinblastine]; settings: top dose 0.1 µM; top dose inferred
Description: as §1

Afatinib = compound: CN(C)C/C=C/C(=O)Nc1cc2c(Nc3ccc(F)c(Cl)c3)ncnc2cc1O[C@H]1CCOC1 [Afatinib]
Description: as §1

[1] = top dose 0.5 µM, screen: GDSC drug entry 1032
[2] = top dose 10 µM, screen: GDSC drug entry 1377, top dose inferred

| Cell Line | AUC (XMD13-2) | IC50 (XMD13-2) [nM] | AUC (PF-562271) | IC50 (PF-562271) [nM] | AUC (SNX-2112) | IC50 (SNX-2112) [nM] | AUC (Vinblastine) | IC50 (Vinblastine) [nM] | AUC (Afatinib; [1]) | IC50 (Afatinib; [1]) [nM] | AUC (Afatinib; [2]) | IC50 (Afatinib; [2]) [nM] |
| --- | --- | --- | --- | --- | --- | --- | --- | --- | --- | --- | --- | --- |
| NB14 (neuroblastoma, adherent) | 0.959 | > 10200 | 0.89 | > 2560 | 0.497 | 158 | 0.508 | 6.56 | 0.989 | > 500 | 0.975 | > 10000 |
| NCI-H1944 (lung adenocarcinoma, adherent) | 0.915 | > 10200 | 0.96 | > 2560 | 0.433 | 104 | 0.61 | 12.8 | 0.927 | > 500 | 0.927 | > 10000 |
| MSTO-211H (mesothelioma, adherent) | 0.989 | > 10200 | 0.99 | > 2560 | 0.965 | > 2560 | 0.584 | 10.3 | 0.991 | > 500 | 0.99 | > 10000 |
| ST486 (Burkitt lymphoma, suspension) | 0.75 | 3010 | 0.862 | 1790 | 0.214 | 26.3 | 0.624 | 13.1 | 0.99 | > 500 | 0.989 | > 10000 |
| RERF-LC-Sq1 (lung squamous cell carcinoma, adherent) | 0.948 | > 10200 | 0.979 | > 2560 | 0.866 | > 2560 | 0.778 | 61.6 | 0.697 | 146 | 0.601 | 1340 |
| LCLC-103H (large cell lung carcinoma, adherent) | 0.889 | 9770 | 0.838 | 1510 | 0.806 | 1160 | 0.354 | 2.58 | 0.988 | > 500 | 0.99 | > 10000 |
| COLO-678 (large intestine, semi-adherent) | 0.984 | > 10200 | 0.958 | > 2560 | 0.89 | > 2560 | 0.912 | > 100 | 0.833 | 464 | 0.845 | > 10000 |
| HCC1419 (breast, adherent) | 0.954 | > 10200 | 0.98 | > 2560 | 0.838 | > 2560 | 0.72 | 34.8 | 0.787 | 325 | 0.73 | 3800 |
| GCIY (stomach, adherent) | 0.939 | > 10200 | 0.839 | 2090 | 0.849 | 2310 | 0.795 | 53.6 | 0.824 | 351 | – | – |
| SNB75 (glioma, adherent) | 0.975 | > 10200 | 0.824 | > 2560 | 0.958 | > 2560 | 0.585 | 11.9 | 0.979 | > 500 | 0.927 | > 10000 |
| KMRC-1 (kidney, adherent) | 0.98 | > 10200 | 0.888 | > 2560 | 0.838 | 1890 | 0.879 | > 100 | 0.978 | > 500 | – | – |
